# From the supplement of paper PMC8728848
# This is one part of the list.
# B1: RNase 1 (Bos taurus), P61823 (protein)
# chain: MALKSLVLLSLLVLVLLLVRVQPSLGKETAAAKFERQHMDSSTSAASSSNYCNQMMKSRNLTKDRCKPVNTFVHESLADVQAVCSQKNVACKNGQTNCYQSYSTMSITDCRETGSSKYPNCAYKTTQANKHIIVACEGNPYVPVHFDASV
# Assays:
# Test in all cases: glycan array binding signal (z-score within array); higher = stronger binding
# Details in all cases: glycan notation: IUPAC condensed, linker removed
# [1] = target: Gal(a1-4)GlcNAc
# Method in brief: (§1)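 The binding signal is a Z-score computed within each array. Data were drawn from 3228 arrays in the Consortium for Functional Glycomics database, restricted to those with a known protein sequence. Scores were averaged over arrays of the same protein sequence at different concentrations or buffers, and over linkers, and negative values can be taken as non-binding.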
# [2] = target: Gal(a1-6)Glc
# Method in brief: as §1
# [3] = target: Gal(b1-2)Gal
# Method in brief: as §1
# [4] = target: Gal(b1-3)Gal
# Method in brief: as §1
# [5] = target: Gal(b1-3)GalNAc
# Method in brief: as §1
# [6] = target: Gal(b1-3)GalNAc(b1-3)Gal(a1-4)Gal(b1-4)Glc
# Method in brief: as §1
# [7] = target: Gal(b1-3)GalNAc(b1-3)Gal(b1-4)Glc
# Method in brief: as §1
# [8] = target: Gal(b1-3)GalNAc(b1-3)Gal(b1-4)GlcNAc
# Method in brief: as §1
# [9] = target: Gal(b1-3)GalNAc(b1-4)Gal(b1-4)Glc
# Method in brief: as §1
# [10] = target: Gal(b1-3)GalNAc(b1-4)[Neu5Ac(a2-3)]Gal(b1-4)Glc
# Method in brief: as §1
# [11] = target: Gal(b1-3)[Fuc(a1-4)]GlcNAc
# Method in brief: as §1
# [12] = target: Gal(b1-3)[Fuc(a1-4)]GlcNAc(b1-3)Gal(b1-4)GlcNAc
# Method in brief: as §1
# [13] = target: Gal(b1-3)[Fuc(a1-4)]GlcNAc(b1-3)Gal(b1-4)[Fuc(a1-3)]GlcNAc
# Method in brief: as §1
# [14] = target: Gal(b1-3)[GlcNAc(b1-6)]GalNAc
# Method in brief: as §1
# [15] = target: Gal(b1-3)[GlcNAc(b1-6)]GlcNAc
# Method in brief: as §1
# [16] = target: Gal(b1-3)[Neu5Ac(a2-6)]GalNAc
# Method in brief: as §1
# [17] = target: Gal(b1-3)[Neu5Ac(a2-6)]GlcNAc
# Method in brief: as §1
# [18] = target: Gal(b1-3)[Neu5Ac(a2-6)]GlcNAc(a1-4)Gal(b1-4)Glc
# Method in brief: as §1
# [19] = target: Gal(b1-3)[Neu5Ac(b2-6)]GlcNAc
# Method in brief: as §1
# [20] = target: Gal(b1-4)GalNAc(a1-3)[Fuc(a1-2)]Gal(b1-4)GlcNAc
# Method in brief: as §1
# [21] = target: Gal(b1-4)GalNAc(b1-3)[Fuc(a1-2)]Gal(b1-4)GlcNAc
# Method in brief: as §1
# [22] = target: Gal(b1-4)Glc
# Method in brief: as §1
# [23] = target: Gal(b1-4)Glc6S
# Method in brief: as §1
# [24] = target: Gal(b1-4)GlcNAc
# Method in brief: as §1
# [25] = target: Gal(b1-4)GlcNAc(b1-2)Man(a1-3)[Gal(b1-4)GlcNAc(b1-2)Man(a1-6)]Man(b1-4)GlcNAc(b1-4)GlcNAc
# Method in brief: as §1
# [26] = target: Gal(b1-4)GlcNAc(b1-3)Gal(b1-4)Glc
# Method in brief: as §1
# [27] = target: Gal(b1-4)GlcNAc(b1-3)Gal(b1-4)GlcNAc
# Method in brief: as §1
# [28] = target: Gal(b1-4)GlcNAc(b1-3)Gal(b1-4)GlcNAc(b1-3)Gal(b1-4)GlcNAc
# Method in brief: as §1
# [29] = target: Gal(b1-4)GlcNAc(b1-3)Gal(b1-4)[Fuc(a1-3)]GlcNAc(b1-3)Gal(b1-4)[Fuc(a1-3)]GlcNAc
# Method in brief: as §1
# [30] = target: Gal(b1-4)GlcNAc(b1-3)GalNAc
# Method in brief: as §1
# [31] = target: Gal(b1-4)GlcNAc(b1-3)[Gal(b1-4)GlcNAc(b1-6)]GalNAc
# Method in brief: as §1
# [32] = target: Gal(b1-4)GlcNAc(b1-6)GalNAc
# Method in brief: as §1
# [33] = target: Gal(b1-4)GlcNAc(b1-6)[Gal(b1-3)]GalNAc
# Method in brief: as §1
# [34] = target: Gal(b1-4)GlcNAc(b1-6)[Gal(b1-3)]GlcNAc
# Method in brief: as §1
# [35] = target: Gal3S(b1-3)GalNAc
# Method in brief: as §1
# [36] = target: Gal3S(b1-3)GlcNAc
# Method in brief: as §1
# [37] = target: Gal3S(b1-3)[Fuc(a1-4)]GlcNAc
# Method in brief: as §1
# [38] = target: Gal3S(b1-4)Glc
# Method in brief: as §1
# [39] = target: Gal3S(b1-4)Glc6S
# Method in brief: as §1
# [40] = target: Gal3S(b1-4)GlcNAc
# Method in brief: as §1
# [41] = target: Gal3S(b1-4)GlcNAc6S
# Method in brief: as §1
# [42] = target: Gal3S6S(b1-4)GlcNAc
# Method in brief: as §1
# [43] = target: Gal3S6S(b1-4)GlcNAc6S
# Method in brief: as §1
# [44] = target: Gal4S(b1-4)GlcNAc
# Method in brief: as §1
# [45] = target: Gal4S6S(b1-4)GlcNAc
# Method in brief: as §1
binder,measurement,setting,value
B1,glycan array binding signal (z-score),[1],-0.225
same,glycan array binding signal (z-score),[2],0.634
same,glycan array binding signal (z-score),[3],0
same,glycan array binding signal (z-score),[4],-0.006
same,glycan array binding signal (z-score),[5],-0.191
same,glycan array binding signal (z-score),[6],0.495
same,glycan array binding signal (z-score),[7],0.641
same,glycan array binding signal (z-score),[8],-0.176
same,glycan array binding signal (z-score),[9],-0.202
same,glycan array binding signal (z-score),[10],0.026
same,glycan array binding signal (z-score),[11],-0.204
same,glycan array binding signal (z-score),[12],-0.135
same,glycan array binding signal (z-score),[13],-0.114
same,glycan array binding signal (z-score),[14],-0.236
same,glycan array binding signal (z-score),[15],-0.197
same,glycan array binding signal (z-score),[16],-0.232
same,glycan array binding signal (z-score),[17],-0.195
same,glycan array binding signal (z-score),[18],0.379
same,glycan array binding signal (z-score),[19],-0.224
same,glycan array binding signal (z-score),[20],-0.115
same,glycan array binding signal (z-score),[21],-0.218
same,glycan array binding signal (z-score),[22],-0.073
same,glycan array binding signal (z-score),[23],-0.14
same,glycan array binding signal (z-score),[24],-0.196
same,glycan array binding signal (z-score),[25],-0.171
same,glycan array binding signal (z-score),[26],0.369
same,glycan array binding signal (z-score),[27],-0.165
same,glycan array binding signal (z-score),[28],-0.224
same,glycan array binding signal (z-score),[29],-0.101
same,glycan array binding signal (z-score),[30],-0.22
same,glycan array binding signal (z-score),[31],-0.216
same,glycan array binding signal (z-score),[32],-0.221
same,glycan array binding signal (z-score),[33],-0.205
same,glycan array binding signal (z-score),[34],-0.197
same,glycan array binding signal (z-score),[35],-0.186
same,glycan array binding signal (z-score),[36],-0.127
same,glycan array binding signal (z-score),[37],-0.179
same,glycan array binding signal (z-score),[38],-0.184
same,glycan array binding signal (z-score),[39],-0.033
same,glycan array binding signal (z-score),[40],-0.17
same,glycan array binding signal (z-score),[41],-0.098
same,glycan array binding signal (z-score),[42],-0.091
same,glycan array binding signal (z-score),[43],-0.178
same,glycan array binding signal (z-score),[44],0.34
same,glycan array binding signal (z-score),[45],-0.035
